Measured values published in patent US20240325539A1, “METHODS AND COMPOSITIONS FOR TREATING EPSTEIN BARR VIRUS-ASSOCIATED CANCER” (The Chancellor, Masters and Scholars of the University of …, priority 2020, published 2024).

Tests used:
YCCEL1 cells [1] = type: cell-based, human
YCCEL1 cells [2] = assay: High content imaging of Zta-positive cells (immunofluorescence)
YCCEL1 cells [3] = assay: Western blot for Zta and total acetylation of histone 3; type: cell-based, human; settings: for modified (SUMOylated) Zta bands: YCCEL1, anti-Zta immunoblot, topo II inhibitors alone or with chidamide (FIG. 14)
Description: Protein concentration was determined by the Bradford assay.

BZLF1 enhancer = assay: ChIP-qPCR of p53 binding; type: cell-based, EBV
Description: Twenty million cells were cross-linked on the plate by adding 1% formaldehyde in the culture medium for 10 min at room temperature. The reaction was stopped by adding 125 mM glycine and incubating for 10 min at room temperature. Cells were washed twice with cold PBS and collected by scraping. Cells were lysed in SDS buffer (1% SDS, 10 mM EDTA, 50 mM Tris pH 8.1) for 30 min on ice. For chromatin shearing, cell lysates were sonicated using the Covaris S220 ultrasonicator (Covaris). One percent of chromatin was conserved as an input sample. Fragmented chromatin was diluted ten times with Chromatin Dilution Buffer (0.01% SDS, 1.1% TritonX-100, 1.2 mM EDTA, 16.7 mM Tris-HCl pH 8.1, 167 mM NaCl) and precleared with Protein A/G magnetic beads mix (ThermoFisher) for 1 h at +4° C. on a rotator. Precleared chromatin was incubated with 5 μg anti-p53 DO1 antibody or anti-mouse IgG overnight on a rotator at +4° C. The day after, samples were incubated with Protein A/G magnetic beads mix for 1 h at +4° C. on a rotator. The beads were collected using magnet and washed five times with cold RIPA washing buffer (50 mM Hepes-KOH PH 7.6, 500 mM LiCl, 1 mM EDTA, 1% NP-40, 0.7% Na-deoxycholate) and twice with TE/NaCl buffer (10 mM Tris pH 8.0, 1 mM EDTA, 50 mM NaCl). DNA was eluted by incubating the beads in Elution buffer (50 mM Tris-HCl, pH 8.0, 10 mM EDTA, 1% SDS) for 30 min at 65° C. […]

[4] = target: T1, EBV Zta (BZLF1) peptide on HLA-B*18:01 (human); assay: cytokine release
T1 peptide: DSELEIKRY

[5] = target: T2, EBV Zta (BZLF1) peptide on HLA-A*23:01 (human); assay: cytokine release
T2 peptide: RYKNRVAS

[6] = target: T3, EBV Zta (BZLF1) peptide on HLA-B*18:01 (human); assay: cytokine release
T3 peptide: CDSELEIKR

[7] = FIGS. 1C and 9D (YCCEL1; SNU719)

In the case of `Cc1[nH]c2ccccc2c1CCNCc1ccc(/C=C/C(=O)NO)cc1` [panobinostat], the “toxicity (cell number relative to DMSO)” value (YCCEL1 cells [1]) is reported as “high toxicity”.

For `O=C(/C=C/c1ccc(CN(CCO)CCc2c[nH]c3ccccc23)cc1)NO` [LAQ824], the “toxicity (cell number relative to DMSO)” value (YCCEL1 cells [1]) was “high toxicity” and the “Zta expression / EBV reactivation” value (YCCEL1 cells [2]; increasing concentrations (FIG. 1B)) was “able to reactivate EBV”.

`COc1cc([C@@H]2c3cc4c(cc3[C@@H](O[C@@H]3O[C@@H]5CO[C@@H](c6cccs6)O[C@H]5[C@H](O)[C@H]3O)[C@H]3COC(=O)[C@H]23)OCO4)cc(OC)c1O` [teniposide] was tested, and the “modified (SUMOylated) Zta bands” value (YCCEL1 cells [3]) was “induced modified 47 kDa Zta bands”.

In the case of `O=C1c2c(O)ccc(O)c2C(=O)c2c(NCCNCCO)ccc(NCCNCCO)c21` [mitoxantrone], the “modified (SUMOylated) Zta bands” value (YCCEL1 cells [3]) is reported as “induced modified 47 kDa Zta bands”.

`Nc1ccccc1NC(=O)c1ccc(CNc2nccc(-c3cccnc3)n2)cc1` [mocetinostat] was tested, and the “toxicity (cell number relative to DMSO)” value (YCCEL1 cells [1]) was “high toxicity at high concentrations”.

For `CN(C)CCN1C(=O)c2cccc3cc(N)cc(c23)C1=O` [amonafide], the “modified (SUMOylated) Zta bands” value (YCCEL1 cells [3]) was “induced modified 47 kDa Zta bands”.

For `Nc1cc(F)ccc1NC(=O)c1ccc(CNC(=O)/C=C/c2cccnc2)cc1` [chidamide], the “toxicity (cell number relative to DMSO)” value (YCCEL1 cells [1]) was “low toxicity”, the “Zta+ cells” value (YCCEL1 cells [2]; 5 μM) was 5.8% and the “Zta+ cells” value (YCCEL1 cells [2]; 10 μM) was 14.5%. The “cells with reactivated EBV” value (YCCEL1 cells [2]; chidamide 2.5 μM alone) was “less than 1%”.

For `COc1ncc(-c2nc3c(n2C(C)C)[C@H](c2ccc(Cl)cc2)N(c2cc(Cl)cn(C)c2=O)C3=O)c(OC)n1` [HDM201], the “p53 binding at the BZLF1 enhancer” value (BZLF1 enhancer) was “further increased”.

With `Nc1ccccc1NC(=O)c1ccc(CNC(=O)OCc2cccnc2)cc1` [entinostat] the “toxicity (cell number relative to DMSO)” value (YCCEL1 cells [1]) was “high toxicity at high concentrations”.

In the case of `COc1cccc2c1C(=O)c1c(O)c3c(c(O)c1C2=O)C[C@@](O)(C(=O)CO)C[C@@H]3O[C@H]1C[C@H](N)[C@H](O)[C@H](C)O1` [doxorubicin], the “modified (SUMOylated) Zta bands” value (YCCEL1 cells [3]) is reported as “induced modified 47 kDa Zta bands; also recorded: induced a detectable 60 kDa Zta”.

In the case of `O=C(/C=C/c1cccc(S(=O)(=O)Nc2ccccc2)c1)NO` [PXD101], the “induction of Zta expression (Western blot)” value (YCCEL1 cells [3]; [7]) is reported as “failure” and the “total histone 3 acetylation (H3-ac)” value (YCCEL1 cells [3]; [7]) is reported as “induced detectable H3-ac”.

With `COc1cccc2c1C(=O)c1c(O)c3c(c(O)c1C2=O)C[C@@](O)(C(=O)CO)C[C@@H]3O[C@H]1C[C@H](N)[C@@H](O)[C@H](C)O1` [epirubicin] the “p53 binding at the BZLF1 enhancer” value (BZLF1 enhancer) was “further increased”.

B1: TCR9 (TCR)
alpha TRAV13-1*02 TRAJ42*01 CDR3: CAASKEGGGSQGNLIF
beta TRBV20-1*02 TRBJ2-1*01 CDR3: CSARDRGEHPPNDQFF
B1: recognises [4].

B2: TCR34 (TCR)
alpha TRAV29*01 TRAJ16*01 CDR3: CAASEGGQKLLF
beta TRBV7-9*03 TRBJ2-4*01 CDR3: CASSAPNSDSAKNIQYF
B2: recognises [5].

B3: TCR131 (TCR)
alpha TRAV26-2*01 TRAJ47*01 CDR3: CILRDGVGYGNKLVF
beta TRBV9*02 TRBJ2-3*01 CDR3: CASEDRGGTDTQYF
B3: recognises [4].

B4: TCR132 (TCR)
alpha TRAV14*01 TRAJ52*01 CDR3: CAMREGSGVGTSYGK
beta TRBV29-1*01 TRBJ2-5*01 CDR3: CSAAGTSGSGETQYF
B4: recognises [6].

“Also recorded” adds a separate entry of the source.
